The whole screen tested about 45,000 compounds, of which about 200 (0.44%) were called active. Roughly 7% stayed inconclusive and do not appear here. Calls come from the whole dose curve; as a rule, active = well fitted activation curve with a large enough effect; inconclusive = small, poorly fitted or top-dose-only effect; inactive = no such curve, though single readings can be large or run the other way. Some of the results follow.
Test: qHTS of TDP-43 Inhibitors: NCGC Sytravon Library Screen; note: 0% is about no effect; nearly all actives have a fitted effect of over 55% in size
Conditions: yeast TDP-43 toxicity rescue, BacTiter-Glo growth, 24 h; series mostly up to 46.1 µM; growth rescue (activation): at the top concentration
Summary of the method: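 TDP-43-expressing yeast, pregrown in raffinose, seeded at OD600 0.02 in galactose medium with compound for 24 hr at 30 deg C. Growth read by BacTiter-Glo luminescence, so rescue of toxicity appears as activation.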

Row | Compound | growth rescue (activation) | Potency
1 | COc1ccc(-n2c(C)cc(/C=C3\SC(=S)N(Cc4ccco4)C3=O)c2C)cc1 | inactive: 23.3% | –
2 | CC(SCC(=O)Nc1ccccc1Br)c1nc2ccccc2c(=O)[nH]1 (centres undefined) | inactive: 3.11% | –
3 | O=C(Nc1ccc(Br)cc1)c1cccc(-n2cnnn2)c1 | inactive: 4.45% | –
4 | Cc1cc(-c2ccc(C(C)C)c(S(=O)(=O)N3CCN(c4ccccc4)CC3)c2)on1 | inactive: 1.97% | –
5 | COCCNC(=O)Cn1cc(C(=S)N2CCOCC2)c2ccccc21 | inactive: 6.11% | –
6 | Cc1csc(=O)n1CCC(=O)OC(C)C(=O)NCc1ccccc1 (centres undefined) | inactive: -2.16% | –
7 | CC1=C([N+](=O)[O-])C(c2ccc(Cl)cc2)NC(=O)N1C (centres undefined) | inactive: 0.946% | –
8 | O=C(O)Cn1c(=O)c2c(c3ccccc31)CCC2 | inactive: 7.8% | –
9 | O=[N+]([O-])c1cccc(S(=O)(=O)c2ccc(NCCOCCO)c([N+](=O)[O-])c2)c1 | inactive: 5.26% | –
10 | COc1ccc(CCNC(=O)c2ccc3c(c2)OCO3)cc1 | inactive: 12.1% | –
11 | NC(=O)C1CCN(C(=O)c2ccc([N+](=O)[O-])cc2NC(=O)c2cccs2)CC1 | inactive: -8.32% | –
12 | Cc1noc(C)c1COC(=O)/C=C/c1ccc(Cl)cc1 | inactive: 21.1% | –
13 | O=C(NCc1ccc(F)cc1)C(c1ccccc1)N(C(=O)c1csnn1)C1CC1 (centres undefined) | inactive: 7.3% | –
14 | COc1cccc(NC(=O)Nc2cc(C)ccc2OC)c1 | inactive: 5.65% | –
15 | CCc1nc2ccc(C(=O)NC3CCN(Cc4ccccc4)CC3)cn2c1N(C)Cc1cccs1 | inactive: -4.8% | –
16 | CCN(CC(=O)NC(C)C)C(=O)c1cc(S(=O)(=O)N2CCCCC2)ccc1N1CCCCC1 | inactive: 5.21% | –
17 | O=C(NCCOc1ccccc1F)C1CC(=O)N(Cc2ccccc2)C1 (centres undefined) | inactive: 13.9% | –
18 | CCC(CC)NC(=O)/C=C/c1cccc([N+](=O)[O-])c1 | inactive: -17.8% | –
19 | O=c1c2[nH]c3ccc(F)cc3c2ncn1CC1CCCO1 (centres undefined) | inactive: 6.63% | –
20 | CCC1CCCCN1S(=O)(=O)Cc1ccccc1Cl (centres undefined) | inactive: 42.6% | –
21 | CC(CN1CCCCC1)OC(=O)CCc1ccccc1 (centres undefined) | inactive: 1.9% | –
22 | O=C(CN1CCCN(Cc2ccc(F)cc2Cl)C1=O)NC1CCCC1 | inactive: -15.3% | –

Row | Compound | growth rescue (activation) | Potency
23 | CC(C)N(Cc1ccccc1)C(=O)COC(=O)c1ccc(S(=O)(=O)N2CCOCC2)cc1 | inactive: 14.2% | –
24 | COc1cccc(NC(=O)Nc2cc(C(=O)O)ccc2C)c1 | inactive: -5.78% | –
25 | O=C(CC1NCCc2ccccc21)Nc1cccc(Cl)c1 (centres undefined) | inactive: -2.84% | –
26 | O=c1c2nccnc2[nH]c(=S)n1Cc1ccccc1 | inactive: 4.17% | –
27 | CCn1c(C)[n+](CC)c2ccc(C(=O)N(C)c3ccccc3)cc21 | inactive: 1.05% | –
28 | CC(C)CNC(=O)c1ccccc1NC(=O)CN(c1ccccc1)S(=O)(=O)N(C)C | inactive: -1.1% | –
29 | COc1cccc(NC(=O)N2CCN(c3ccc(C(F)(F)F)cn3)CC2)c1 | inactive: -15.5% | –
30 | CC1CN(C(=O)N2CCCCC2)CCN1C(=O)N1CCCCC1 (centres undefined) | inactive: 2.2% | –
31 | Cc1ccc(O)c(NC(=O)C2CCCCC2)c1 | inactive: -25% | –
32 | Cc1ccc(CNC(=O)CN2C(=O)NC(C)(c3ccc(Cl)cc3)C2=O)cc1 (centres undefined) | inactive: 2.32% | –
33 | CC(/C=N/NC(=O)c1cc(-c2ccc(C)s2)[nH]n1)=C\c1ccccc1 | inactive: 10.5% | –
34 | Cc1ccc(/C=C/C(=O)Nc2ccc([N+](=O)[O-])c(NC(=O)/C=C/c3ccc(C)o3)c2)o1 | inactive: -10.7% | –
35 | COc1ccccc1NC(=O)CCN1CCCCC1 | inactive: 8.13% | –
36 | CCC(C)/C(C)=N/NC(=O)CNS(=O)(=O)c1ccc([N+](=O)[O-])cc1 (centres undefined) | inactive: 10.4% | –
37 | CC(=O)Nc1ccc(S(=O)(=O)NCCSCc2cccc(Cl)c2)cc1 | inactive: 20.5% | –
38 | COc1cccc(OCCSc2nc(C)c(Cc3ccccc3)c(=O)[nH]2)c1 | – | inactive
39 | N#C/C(=C\c1cccc(OC(=O)c2cccs2)c1)C(N)=O | inactive: 5.43% | –
40 | O=C(O)CSc1nnc(-c2ccncc2)n1Cc1ccccc1 | inactive: 2.64% | –
41 | CCS(=O)(=O)N1CCN(S(=O)(=O)c2ccc3c(c2)OCCO3)CC1 | inactive: -13.5% | –
42 | COc1ccc(N(CC(=O)Nc2ccccc2C(=O)N2CCOCC2)S(=O)(=O)c2ccc(F)cc2)cc1 | inactive: 15.5% | –
43 | CCn1c2ccccc2c2nnc(SCC(=O)NC3CCS(=O)(=O)C3)nc21 (centres undefined) | inactive: 7.97% | –
44 | O=C1NC(=O)C2(CCC(C(=O)O)C2)N1 (centres undefined) | inactive: 5.82% | –

Row | Compound | growth rescue (activation) | Potency
45 | O=C(Nc1ccc(SC(F)(F)F)cc1)c1ccccn1 | inactive: 19.4% | –
46 | Cc1ccc(S(=O)(=O)NCC(C)n2nc(C)nc2C)cc1 (centres undefined) | inactive: 7.08% | –
47 | CN(C)c1ccc(CNc2ccccn2)cc1 | inactive: -5.83% | –
48 | CC1CN(C)C(C)C/C1=N/Oc1ccccc1[N+](=O)[O-] (centres undefined) | inactive: 5.75% | –
49 | Cc1cc2cc(CN(Cc3cccs3)C(=S)NCC3CCCO3)c(=O)[nH]c2cc1C (centres undefined) | inactive: 13.5% | –
50 | Nc1ccc(S(=O)(=O)O)cn1 | – | inactive
51 | CC1(C(=O)NS(=O)(=O)c2ccc(Cl)cc2)CCN1C(=O)C1CC1 (centres undefined) | inactive: 3.71% | –
52 | CC(=O)Nc1ccc(SCC(=O)N(C)CC(=O)Nc2ccccc2Cl)cc1 | inactive: -6.68% | –
53 | CCCCNS(=O)(=O)c1ccc(C)c(-c2nnc3c4ccccc4c(C)nn23)c1 | inactive: 8.58% | –
54 | O=C(NN=C1CCCC1)c1ccccc1OCc1ccc(Cl)cc1 | inactive: 11.1% | –
55 | Cc1cc(C)cc(OCC(=O)N2N=C(c3cccnc3)CC2(O)C(F)(F)F)c1 (centres undefined) | inactive: 25.7% | –
56 | CCN(CC)c1ncnc2c1ncn2[C@H]1CN(Cc2cc(OC)c(OC)c(OC)c2)C[C@@H](CO)O1 | inactive: 10.2% | –
57 | COc1ccc(/C=N/N=C2/CC(C)(C)Cc3n[nH]c(=O)cc32)cc1 | inactive: -0.388% | –
58 | COc1ccc(-n2c(-c3ccc(Cl)cc3Cl)n[nH]c2=S)c(OC)c1 | inactive: 16.1% | –
59 | O=C(CN1CCCC1)NCC(=O)Nc1ccc(F)cc1 | inactive: 10.5% | –
60 | O=C(O)CCN1CC2([N+](=O)[O-])C=CC(=O)C([N+](=O)[O-])(C1)C2CC(=O)c1ccccc1 (centres undefined) | inactive: 27.9% | –
61 | CC(=O)c1ccc(C(=O)N(C)C2CCCN(Cc3ccccc3F)C2)s1 (centres undefined) | inactive: 0.139% | –
62 | CN(C(=O)CO/N=C/c1ccc(OC(F)F)cc1)C1CCS(=O)(=O)C1 (centres undefined) | inactive: -3.26% | –
63 | Cc1ccc2cc(NC(=O)C3(C)CCN3CC(C)C)ccc2n1 (centres undefined) | inactive: 2.87% | –
64 | CC(OC(=O)c1cccs1)C(=O)NCCc1ccccc1 (centres undefined) | inactive: 2.58% | –
65 | O=C(N/N=C/c1ccc2cccnc2c1)c1nc2ccccc2c(=O)[nH]1 | inactive: -4.09% | –
66 | COc1cc(NC(=O)C2(C)CCN2C(C)C)cc(OC)c1OC (centres undefined) | inactive: 7.19% | –

Row | Compound | growth rescue (activation) | Potency
67 | CC1CCN(C(=O)c2cc3c(=O)n4ccccc4nc3s2)CC1 | inactive: 17.7% | –
68 | O=c1nc(Nc2ccc(OCc3ccccc3)cc2)sc2ncccc12 | inactive: -41% | –
69 | O=C1c2ccccc2CC1Sc1nnc(-c2ccccn2)o1 (centres undefined) | inactive: 9.18% | –
70 | COc1ccc(/C=C(\NC(=O)c2ccco2)C(=O)NC(Cc2ccccc2)C(=O)O)cc1 (centres undefined) | inactive: 13.7% | –
71 | CCNc1nc2c(c(=O)n(Cc3ccccc3)c(=O)n2C)n1Cc1ccccc1 | inactive: 32.3% | –
72 | CCN(CC)c1cc(NCCO)c([N+](=O)[O-])c2nonc12 | inactive: 9.04% | –
73 | O=C(CNC(=O)c1cccc(F)c1)OCC(=O)N1CCN(C(=O)c2ccco2)CC1 | inactive: 6.13% | –
74 | COCCNC(=O)/C(C#N)=C/c1ccc(SC)cc1 | inactive: -21% | –
75 | Cc1ccc(S(=O)(=O)c2nc(-c3ccco3)oc2SCC(N)=O)cc1 | inactive: 7.88% | –
76 | O=C1C=C(N2CCOCC2)C2(CCCCC2)O1 | inactive: 3.2% | –
77 | COc1ccc(CC(N)c2csc(Nc3ccccn3)n2)cc1 (centres undefined) | inactive: 1.32% | –
78 | c1ccc2c(c1)CCN(c1nc(CN3CCOCC3)nc3sc4c(c13)CCCC4)C2 | inactive: 14.2% | –
79 | O=c1[nH]c(C2CCCN(S(=O)(=O)c3ccc(F)cc3)C2)nc2c1nnn2Cc1ccc(F)cc1 (centres undefined) | inactive: -10.1% | –
80 | NC(=S)N=Nc1c(O)[nH]c2c(Br)cc(Br)cc12 | inactive: -11.4% | –
81 | O=C(CCn1cccn1)N1CCCC(N2CCN(c3cccc(Cl)c3)CC2)C1 (centres undefined) | inactive: 9.33% | –
82 | COc1ccc2c(CC(=O)NNC(=O)c3cccs3)coc2c1 | inactive: 35.1% | –
83 | N#Cc1ccc(COC(=O)C2CC(=O)N(CCc3ccccc3)C2)cc1 (centres undefined) | inactive: 6.86% | –
84 | CCCn1nnnc1SCC(=O)N1C(C)CCCC1C (centres undefined) | inactive: -4.83% | –
85 | O=C(/C=C/c1ccccc1[N+](=O)[O-])NCc1ccc(Cl)cc1 | inactive: 15.2% | –
86 | CCN(CC)c1ccc(/C=C2/C(=O)c3ccc(C(=O)O)cc3C2=O)cc1 | inactive: -0.263% | –
87 | Cc1csc(NC(=O)CN2C(=O)COc3ccc(Cl)cc32)n1 | inactive: 8.78% | –
88 | Cc1cccc(C(=O)NCCN2CCOCC2)c1[N+](=O)[O-] | inactive: -0.384% | –

Row | Compound | growth rescue (activation) | Potency
89 | COc1ccc(S(=O)(=O)N2CCOCC2)cc1NC(=O)CN1C(=O)NC2(CCCCC2C)C1=O (centres undefined) | inactive: 4.77% | –
90 | O=c1[nH][nH]c(=O)n1-c1ccccc1 | inactive: 15.4% | –
91 | COc1ccccc1/C=C1\SC(=S)N(CCC(=O)Nc2nnc(C)s2)C1=O | inactive: -21.7% | –
92 | COc1ccc(C(=O)n2nc(-c3ccco3)nc2SC)cc1OC | inactive: -15.3% | –
93 | COc1ccc(N2C(=O)CSC2c2ccc(F)cc2)cc1 (centres undefined) | inactive: 6.77% | –
94 | Cc1cc(C)cc(OCC(O)CN2CCN(Cc3ccc4c(c3)OCO4)CC2)c1 (centres undefined) | inactive: -0.77% | –
95 | COc1ccc(-c2cc(NC=O)c3ncc(-c4ccc(OC)c(OC)c4)n3c2)cc1OC | inactive: 1.84% | –
96 | Cc1noc(C)c1C(=O)Nc1cccc2ncccc12 | inactive: -8.34% | –
97 | OC(c1ccc(F)c(F)c1)c1ncc(-c2ccc(Cl)cc2)[nH]1 (centres undefined) | inactive: 7.4% | –
98 | COc1ccc(/C=N/Nc2nc(-c3cccnc3)nc3ccccc23)cc1OC | inactive: -22.2% | –
99 | CCOC(=O)NC(=O)CSc1nnc(C2CC2)n1Cc1ccco1 | inactive: 3.5% | –
100 | COc1ccc2nc(SC(C(=O)c3ccccc3)c3ccccc3)nc(C)c2c1 (centres undefined) | inactive: -14.3% | –
101 | COc1cc2c(=O)n(CCC(=O)NCC3CCCO3)c(=O)n(CC(=O)Nc3ccc(C)cc3C)c2cc1OC (centres undefined) | inactive: 12.9% | –
102 | COc1cc(C(=O)N=c2sc3ccccc3n2C)cc(OC)c1OC | inactive: 5.28% | –
103 | Cc1cccc(Cc2nnc(CCC(=O)N3CCCC(CN4CCOCC4)C3)o2)c1 (centres undefined) | inactive: -3.47% | –
104 | CCc1c(C(=O)NNC(=S)NC2CCCCC2)csc1C | inactive: -0.49% | –
105 | COC(=O)CCCCCCCCCCN1CCCCC1 | inactive: 5.77% | –
106 | CCN(CC)CC(=O)N1c2ccccc2Oc2c(c(=O)n(C)c(=O)n2C)C1c1cccc([N+](=O)[O-])c1 (centres undefined) | inactive: 6.48% | –
107 | Cc1ccc(-c2csc(Nc3ccc(C(=O)O)cc3)[n+]2Cc2ccccc2)cc1 | inactive: -1.19% | –
108 | Cc1nc(C)c(/C(O)=C/c2nc3ccccc3oc2=O)s1 | inactive: -9.93% | –
109 | CN1CCN(C(=O)c2cnn3c(C(F)(F)F)cc(-c4cccs4)nc23)CC1 | inactive: 1.93% | –

Source: PubChem BioAssay AID1347073 (National Center for Advancing Translational Sciences (NCATS), 2019)
